Experimental data published in article PMC4336329 (PLoS ONE, 2015).
In all, about 310,000 compounds went through this assay and about 14,000 (4.5%) showed an effect of 50% or more. Effects have a minus sign here. The list shows a part of the results.

target: human ether-à-go-go-related gene (hERG) potassium channel (human, UniProt Q12809); assay: primary screen, population patch clamp on CHO cells stably expressing hERG
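Also: peak tail current of the secondary pulse compared with the same well before compound.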

Sequence of human ether-à-go-go-related gene (hERG) potassium channel (Q12809 whole entry, looked up): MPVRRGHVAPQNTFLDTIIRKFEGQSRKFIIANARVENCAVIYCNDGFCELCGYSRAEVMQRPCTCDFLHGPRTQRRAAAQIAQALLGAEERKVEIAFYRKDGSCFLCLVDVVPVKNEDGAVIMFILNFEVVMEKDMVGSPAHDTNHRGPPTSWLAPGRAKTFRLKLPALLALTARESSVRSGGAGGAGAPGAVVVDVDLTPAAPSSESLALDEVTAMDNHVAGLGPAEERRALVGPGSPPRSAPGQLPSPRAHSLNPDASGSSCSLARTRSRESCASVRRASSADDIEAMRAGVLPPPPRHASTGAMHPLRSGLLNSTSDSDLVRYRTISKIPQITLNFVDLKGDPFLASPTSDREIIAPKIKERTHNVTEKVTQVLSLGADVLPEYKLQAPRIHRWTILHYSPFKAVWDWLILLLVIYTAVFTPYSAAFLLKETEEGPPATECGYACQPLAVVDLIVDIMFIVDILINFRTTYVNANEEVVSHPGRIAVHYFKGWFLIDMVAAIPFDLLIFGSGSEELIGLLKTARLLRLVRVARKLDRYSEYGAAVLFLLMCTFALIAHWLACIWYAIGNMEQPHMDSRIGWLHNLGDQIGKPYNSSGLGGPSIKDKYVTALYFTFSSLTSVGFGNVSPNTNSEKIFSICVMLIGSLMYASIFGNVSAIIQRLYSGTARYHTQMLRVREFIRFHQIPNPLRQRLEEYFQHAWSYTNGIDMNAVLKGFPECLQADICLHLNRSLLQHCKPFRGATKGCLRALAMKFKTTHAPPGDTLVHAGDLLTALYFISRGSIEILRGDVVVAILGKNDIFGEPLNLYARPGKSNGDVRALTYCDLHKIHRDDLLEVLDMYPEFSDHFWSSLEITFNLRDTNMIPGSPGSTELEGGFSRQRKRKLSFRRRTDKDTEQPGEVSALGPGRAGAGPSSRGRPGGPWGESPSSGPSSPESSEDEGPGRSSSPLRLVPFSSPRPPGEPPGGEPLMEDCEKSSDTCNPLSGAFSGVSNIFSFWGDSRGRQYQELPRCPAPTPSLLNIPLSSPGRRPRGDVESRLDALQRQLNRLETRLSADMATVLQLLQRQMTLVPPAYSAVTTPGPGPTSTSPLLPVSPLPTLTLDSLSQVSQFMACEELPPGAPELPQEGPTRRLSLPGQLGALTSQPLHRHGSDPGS

SMILES	hERG current change (%, negative = inhibition) at 10uM [%]
O=C(CNc1ccccc1)NNC1=NCCC1	-3.9
COc1ccc(N(CC(=O)Nc2ccc3c(c2)OCCO3)S(=O)(=O)c2c(C)nn(C)c2C)cc1	-9.16
COc1cc(/C=C(/NC(=O)c2ccccc2)C(=O)Nc2ccc(O)cc2)c([N+](=O)[O-])cc1OC	9.25
Cn1ncc(Br)c1C(=O)NC1CCCC1	24.1
COC(=O)C1=C(c2cccc(OC)c2OC)C[C@@H]2CC[C@H]1N2C(=O)N1CCCCC1	2.54
O=C(CN1C(=O)c2cccc3cccc1c23)NCc1ccccn1	17.9
CCNC(=O)c1cccc(NC(=O)C2CC(=O)N(CCc3ccccc3)C2)c1 (stereo not shown)	9.05
COc1ccc(C(=O)NC(=S)Nc2cccc(S(=O)(=O)N3CCOCC3)c2)cc1	-5.04
Cc1cccc(NC(=O)C2SC(=Nc3c(C)cccc3C)C(C(=O)N3CCOCC3)=C2N)c1 (stereo not shown)	0.733
COc1cc(Nc2ncnc(N)n2)cc(OC)c1OC	11
CC(=O)OCC(=O)Nc1ccc(C(C)=O)cc1	-1.86
Cc1cccc(NC2=NCC(=O)N2CCc2ccccc2)c1	-13.2
O=C(O)/C=C/C(=O)N(Cc1ccc2c(c1)OCO2)C1CC(=O)N(CCc2ccccc2)C1=O (stereo not shown)	36.5
Cc1sc2ncn(CC(=O)NCC3COc4ccccc4O3)c(=O)c2c1S(=O)(=O)N1CCCCC1 (stereo not shown)	14.5
CCOc1ccccc1N1CCN(C(=O)C2=CC=CN3CCS(=O)(=O)N=C23)CC1	-1.4
NC(=O)CSc1ncnc2c1oc1ccccc12	10.4
O=C(NCCCn1ccnc1)c1cccc(Cl)c1	0.459
COc1ccc(NC(=O)c2c(C(F)(F)F)nn(C)c2SCc2ccccc2)cc1	-17.2
O=C1c2ccccc2C(=O)N1CSc1nnc(Nc2ccccc2F)s1	2.69
CCc1c(C)[nH]n(-c2nc(-c3cccc([N+](=O)[O-])c3)cs2)c1=O	11.7
O=C(O)c1ccccc1NC(=O)C1C2CCC(O2)C1C(=O)O (stereo not shown)	-1.25
CCc1nc2ccc(C(=O)N(C)CC(=O)Nc3ccc(Cl)c(C(F)(F)F)c3)cc2nc1CC	-7.12

SMILES	hERG current change (%, negative = inhibition) at 10uM [%]
COc1ccc(-n2c(C)nn(C)c2=O)cc1	4.99
Cc1nc2cc(C(=O)N3c4ccccc4CC3C)ccc2s1 (stereo not shown)	-2.85
Cc1cccc2cc(CN(C(=S)NCC(C)C)C3CCCC3)c(=O)[nH]c12	-6.39
Fc1ccc(N2CN(Cc3cccnc3)CNC2=S)cc1	10.7
COC(=O)C(C)(C)ONC(=O)Nc1ccccc1	1.66
CCOc1cc(NC(=S)NCc2ccco2)c(OCC)cc1NC(=O)c1ccco1	-5.5
CC(=O)NC1(c2cccc(F)c2)CCN(CC(=O)NC(C)C)CC1	9.55
NC(=O)C1CC(=O)N(CCc2ccc(F)cc2)C1 (stereo not shown)	22.6
CSc1ccccc1NC(=O)CSc1n[nH]c(N)n1	-2.03
COc1cc(/C=C/c2nc3ccccc3c(=O)[nH]2)cc(OC)c1OC	8.11
CCOC(=O)NC(=O)CSc1nc2ccc([N+](=O)[O-])cc2[nH]1	9.36
COc1ccc(C)c2sc(=NC(=O)c3ccccc3)n(C)c12	27.7
C/C(=N\NC(=O)c1nn(C)c(C)c1Br)c1ccc(NC(=O)C2CCCC2)cc1	13.8
COc1ccc2c(Cl)c(C(=O)NCCCn3ccnc3)sc2c1	-4.86
O=C(c1ccc(Cl)nc1)N1CCN(S(=O)(=O)c2ccc(Cl)cc2)CC1	-17.3
CCCN1CCN(C(=O)CCn2c(=O)c3cccn3c3cccnc32)CC1	-19.5
COc1ccccc1NC(=O)CN1C(=O)COc2ccc(C)cc21	3.39
CCc1[nH]nc(C(=O)N/N=C/c2ccncc2)c1C	-43.9
CC(NCC(=O)Nc1cc(S(=O)(=O)N2CCOCC2)ccc1Cl)c1ccc(Cl)cc1Cl (stereo not shown)	4.67
Cc1cc(NC(=O)CN2C(=O)S/C(=C\c3ccccc3)C2=O)no1	-3.93
Cc1ccccc1OCC(=O)Nc1cnn(CCCC(=O)O)c1	16.6
